Experimental data published in US4092420A, “Novel soft N-chloroamino alcohol derivatives exhibiting antibacterial activity” (INTERx Research Corporation, priority 1977, dated 1978).
At least one read-out could not be matched to a standard name with certainty.

Key:
S. typhimurium = experiment: Contact germicidal efficiency (sterilization time); format: cell-based, Salmonella typhimurium; conditions: Example W, 30% methanol: 0.1 M sodium dihydrogen phosphate, pH 7.0, at the concentration listed per compound (E14/E15)
S. pyogenes = experiment: Contact germicidal efficiency (sterilization time); format: cell-based, Streptococcus pyogenes; conditions: Example W, 30% methanol: 0.1 M sodium dihydrogen phosphate, pH 7.0, at the concentration listed per compound (E14/E15)
B. subtilis = experiment: Contact germicidal efficiency (sterilization time); format: cell-based, Bacillus subtilis; conditions: Example W, 30% methanol: 0.1 M sodium dihydrogen phosphate, pH 7.0, at the concentration listed per compound (E14/E15)
[1] = Solubility in 30% methanol: 0.1 M sodium dihydrogen phosphate, pH 7.0; format: physicochemical; conditions: Example W; for Concentration (footnote: Solubility in 30% methanol: 0.1 M sodium dihydrogen phosphate, pH 7.0): ppm of compound

| SMILES | Sterilization Time (S. typhimurium) [min] | Sterilization Time (S. pyogenes) [min] | Sterilization Time (B. subtilis) [min] | Concentration as positive chlorine (footnote: Solubility in 30% methanol: 0.1 M sodium dihydrogen phosphate, pH 7.0) [1] [PMCl^+] | Concentration (footnote: Solubility in 30% methanol: 0.1 M sodium dihydrogen phosphate, pH 7.0) [1] [PPM] |
| --- | --- | --- | --- | --- | --- |
| CC(=O)OCC(C)(C)N(Cl)Cl [IV a, 2-N,N-Dichloroamino-2-methyl-1-propyl acetate] | 2.5 | 2.5 | 2.5 | 458 | 1292 |
| CCCC(=O)OCC(C)(C)N(Cl)Cl [IV f, 2-N,N-Dichloroamino-2-methyl-1-propyl butyrate] | 2.5 | 0.5 | 0.5 | 304 | 979 |
| CCCCCC(=O)OCC(C)(C)NCl [IV d, 2-N-Chloroamino-2-methyl-1-propyl hexanoate] | 5 | 0.5 | 2.5 | 211 | 1319 |
| CCCCCCCC(=O)OCC(C)(C)NCl [IV e, 2-N-Chloroamino-2-methyl-1-propyl octanoate] | 10 | 2.5 | 0.5 | 43 | 300 |
| CCCCCCCC(=O)OCC(C)(C)N.Cl [III e, 2-Amino-2-methyl-1-propyl octanoate hydrochloride] | 30 | 30 | 5 |  |  |
| CCCC(=O)OCC(C)(C)NCl [IV b, 2-N-Chloroamino-2-methyl-1-propyl butyrate] | 2.5 | 0.5 | 2.5 | 380 | 2078 |
| CC(C)(C)C(=O)OCC(C)(C)N(Cl)Cl [IV g, 2-N,N-Dichloroamino-2-methyl-1-propyl 2,2-dimethylproprionate] | 5 | 2.5 | 2.5 | 120 | 409 |
| CCCCCCCC(=O)OCC(C)(C)N(Cl)Cl [IV i, 2-N,N-Dichloroamino-2-methyl-1-propyloctanoate] | 10 | 5 | 2.5 | 21 | 85 |
| CCCCCC(=O)OCC(C)(C)N.Cl [III d, 2-Amino-2-methyl-1-propyl hexanoate hydrochloride] | > 60 | > 60 | > 60 |  |  |
| CCCC(=O)OCC(C)(C)N.Cl [III b, 2-Amino-2-methyl-1-propyl butyrate hydrochloride] | > 60 | > 60 | > 60 |  |  |
| CCCCCC(=O)OCC(C)(C)N(Cl)Cl [IV h, 2-N,N-Dichloroamino-2-methyl-1-propyl hexanoate] | 10 | 2.5 | 2.5 | 26 | 95 |
| CC(C)(COC(=O)C(C)(C)C)NCl [IV c, 2-N-Chloroamino-2-methyl-1-propyl 2,2-dimethylproprionate] | 2.5 | 0.5 | 2.5 | 323 | 1886 |
